About 16,000 (4.4%) of roughly 360,000 compounds were called active. The inconclusive results got no clear call from the source; some entries with a clear call stand among them for comparison. Calls come from the whole dose curve; as a rule, active = well fitted inhibition curve with a large enough effect; inconclusive = small, poorly fitted or top-dose-only effect; inactive = no such curve, though single readings can be large or run the other way. Potencies of inconclusive entries are doubtful fits and often do not repeat.
Biological target: Bromodomain adjacent to zinc finger domain protein 2B (Homo sapiens) (UniProt Q9UIF8)
UniProt Q9UIF8, sequence (Q9UIF8 whole entry, looked up, the tested form may be a part): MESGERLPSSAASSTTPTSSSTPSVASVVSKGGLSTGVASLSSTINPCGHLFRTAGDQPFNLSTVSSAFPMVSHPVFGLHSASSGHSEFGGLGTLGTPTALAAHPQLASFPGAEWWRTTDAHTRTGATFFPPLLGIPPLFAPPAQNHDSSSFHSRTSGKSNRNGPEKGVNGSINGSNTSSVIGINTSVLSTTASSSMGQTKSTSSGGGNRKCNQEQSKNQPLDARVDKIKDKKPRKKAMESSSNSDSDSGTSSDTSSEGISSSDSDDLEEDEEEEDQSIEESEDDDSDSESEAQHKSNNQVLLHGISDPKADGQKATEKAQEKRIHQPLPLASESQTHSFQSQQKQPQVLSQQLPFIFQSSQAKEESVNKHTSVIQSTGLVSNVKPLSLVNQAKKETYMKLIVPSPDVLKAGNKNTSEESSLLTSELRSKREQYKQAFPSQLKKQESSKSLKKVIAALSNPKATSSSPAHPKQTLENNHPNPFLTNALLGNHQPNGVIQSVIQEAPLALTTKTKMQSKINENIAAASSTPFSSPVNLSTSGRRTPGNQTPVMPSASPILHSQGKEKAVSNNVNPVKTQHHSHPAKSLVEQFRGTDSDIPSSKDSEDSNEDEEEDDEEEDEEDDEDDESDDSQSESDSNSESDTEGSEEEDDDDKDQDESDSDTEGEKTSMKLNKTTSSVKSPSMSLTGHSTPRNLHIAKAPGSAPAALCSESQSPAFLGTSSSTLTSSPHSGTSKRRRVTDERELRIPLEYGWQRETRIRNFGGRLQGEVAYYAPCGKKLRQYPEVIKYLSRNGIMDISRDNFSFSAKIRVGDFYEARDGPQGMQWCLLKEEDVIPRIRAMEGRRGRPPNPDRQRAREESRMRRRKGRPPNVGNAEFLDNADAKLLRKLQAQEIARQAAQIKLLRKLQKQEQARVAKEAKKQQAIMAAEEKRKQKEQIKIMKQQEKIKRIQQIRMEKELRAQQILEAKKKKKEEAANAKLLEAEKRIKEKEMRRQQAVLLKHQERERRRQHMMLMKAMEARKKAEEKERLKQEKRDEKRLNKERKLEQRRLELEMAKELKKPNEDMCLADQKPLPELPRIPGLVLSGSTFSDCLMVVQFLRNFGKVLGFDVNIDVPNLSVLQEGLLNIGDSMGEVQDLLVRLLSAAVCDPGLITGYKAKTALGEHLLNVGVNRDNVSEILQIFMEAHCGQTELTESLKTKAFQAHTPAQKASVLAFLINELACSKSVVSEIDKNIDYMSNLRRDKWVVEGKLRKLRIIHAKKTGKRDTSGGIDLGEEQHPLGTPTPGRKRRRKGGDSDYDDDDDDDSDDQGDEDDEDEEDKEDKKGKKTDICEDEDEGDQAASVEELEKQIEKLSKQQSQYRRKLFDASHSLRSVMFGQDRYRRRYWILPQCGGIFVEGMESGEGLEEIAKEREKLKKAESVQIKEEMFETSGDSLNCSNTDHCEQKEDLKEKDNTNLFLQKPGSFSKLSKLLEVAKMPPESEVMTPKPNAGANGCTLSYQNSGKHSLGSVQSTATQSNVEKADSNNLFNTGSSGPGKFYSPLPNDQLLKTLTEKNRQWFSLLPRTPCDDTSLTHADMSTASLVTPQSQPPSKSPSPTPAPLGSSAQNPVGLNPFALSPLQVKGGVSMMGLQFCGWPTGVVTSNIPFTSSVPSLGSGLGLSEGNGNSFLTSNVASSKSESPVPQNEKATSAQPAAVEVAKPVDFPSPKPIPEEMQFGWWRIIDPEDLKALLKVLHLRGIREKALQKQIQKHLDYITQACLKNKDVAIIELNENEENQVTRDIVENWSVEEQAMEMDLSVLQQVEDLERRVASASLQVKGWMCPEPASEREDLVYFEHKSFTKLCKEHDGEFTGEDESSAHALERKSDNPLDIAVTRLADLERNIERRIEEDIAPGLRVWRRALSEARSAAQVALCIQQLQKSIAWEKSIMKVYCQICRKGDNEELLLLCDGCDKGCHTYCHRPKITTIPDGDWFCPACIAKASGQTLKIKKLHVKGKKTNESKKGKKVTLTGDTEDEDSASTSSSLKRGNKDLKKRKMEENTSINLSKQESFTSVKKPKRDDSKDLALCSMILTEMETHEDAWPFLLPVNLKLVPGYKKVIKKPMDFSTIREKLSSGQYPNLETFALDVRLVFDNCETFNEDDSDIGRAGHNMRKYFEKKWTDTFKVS
Test: qHTS Assay for Inhibitors of BAZ2B; note: nearly all actives have a fitted effect of over 60% in size
Conditions: AlphaScreen BAZ2B-H3K14Ac peptide displacement; activity change, negative = inhibition: at 114 µM (top of the series) unless noted
Summary of the method: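 BAZ2B 50 nM plus b-H3(5-23)K14Ac 50 nM, PBS pH 7.4/0.01% Tween-20, 30 min RT; compound added (max 110 uM), 30 min RT; streptavidin donor/Ni-chelate acceptor beads 10 ug/mL final, 20 min dark; AlphaScreen read.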
% is set by controls: 0 for no effect and ±100 for the full control effect; potency is the fitted concentration of half-maximal effect; tags give direction and shape of the fitted curve.

Row | Compound | activity change, negative = inhibition | Potency
1 | Cc1csc2nc(COc3ccc(NC(=O)COc4ccccc4F)cc3)cc(=O)n12 | inactive: -3.65% | 
2 | CCOC(=O)C1(CCCc2ccccc2)CCN(C2CCSCC2)CC1 |  | inconclusive: 89.1 µM [inhibitor, single point]
3 | Cn1c(CNC(=O)CSc2n[nH]c(-c3ccccc3)n2)nc2ccccc21 | inactive: 2.48% | 
4 | Cc1ccc(/C(O)=C/C(=O)C(=O)NNC(=O)C(O)(c2ccccc2)c2ccccc2)cc1 |  | active: 50.1 µM
5 | Fc1ccc(Nc2nc3nonc3nc2Nc2cccc(C(F)(F)F)c2)cc1 |  | inconclusive: 28.2 µM [inhibitor, full curve]
6 | Cc1ccc(OC(C)C(=O)N2CC(=O)Nc3ccccc32)cc1 (stereo unspecified) | inactive: -8.35% | 
7 | CCC(=O)N1N=C(c2cccs2)CC1c1ccc(C)cc1 (stereo unspecified) | inactive: 14.4% | 
8 | C#CCOCCOCCOCCNc1nc(N2CCN(C(=O)[C@H]([C@@H](C)O)n3cc(CCCCN)nn3)CC2)nc(N2CCN(C(=O)[C@H]([C@@H](C)CC)n3cc(CCCN=C(N)N)nn3)CC2)n1 |  | inconclusive: 89.1 µM [inhibitor, single point]
9 | O=C(NN1C(=O)CSC1=S)c1cccnc1 |  | inconclusive: 79.4 µM [inhibitor, single point]
10 | CC1CCN(C(=O)CSc2nc(-c3ccc(C(C)C)cc3)no2)CC1 | inactive: 62.8% | 
11 | CNC(=S)N(CCc1c(C)[nH]c2ccc(Cl)cc12)Cc1cccnc1 |  | active: 70.8 µM
12 | COc1ccc(-c2cc3ccccc3n2CC(O)CNCCO)cc1 (stereo unspecified) |  | active: 50.1 µM
13 | CC(c1ccccc1)n1c(-c2ccc(C(C)(C)C)cc2)n[nH]c1=S (stereo unspecified) |  | inconclusive: 22.4 µM [inhibitor, full curve, poor fit]
14 | CN(C)CCCn1c(SCC(=O)N2c3ccccc3Sc3ccccc32)nc2ccccc2c1=O |  | inconclusive: 44.7 µM [inhibitor, partial curve]
15 | CCOc1cc(C#N)c(NC(=O)c2cccc(S(=O)(=O)N3CCOCC3)c2)cc1OCC |  | inconclusive: 89.1 µM [inhibitor, single point]
16 | CN(CCO)c1nc(N)c2c(N)nc3c(c2c1C#N)CC(=O)N3C1CCCC1 |  | inconclusive: 25.1 µM [inhibitor, single point]
17 | COc1cc(/C=C(\C#N)C(=O)N2CCc3ccccc32)ccc1O |  | inconclusive: 56.2 µM [inhibitor, partial curve]
18 | CC(=O)c1c(C)[nH]c(C(=O)OCC(=O)N(Cc2ccccc2)C(C)(C)C)c1C |  | inconclusive: 89.1 µM [inhibitor, single point]
19 | COc1ccccc1-c1nc(COc2ccc(Cl)cc2Cl)no1 | inactive: 93.7% | 
20 | O=C(O)c1ccc(/C=N/NC(=O)c2ccc(CN3c4cccc5cccc(c45)S3(=O)=O)cc2)cc1 |  | active: 50.1 µM
21 | CNC(=S)Nc1ccc(N2CCN(c3ccc(C(F)(F)F)cn3)CC2)nc1 |  | inconclusive: 79.4 µM [inhibitor, single point]
22 | O=C(N/N=C/c1ccccc1C(=O)O)c1ccncc1 | inactive: -26.4% | 
23 | COCCSc1nnc(NC(=O)C2CCCO2)s1 (stereo unspecified) | inactive: 11.9% | 
24 | COc1ccc(S(=O)(=O)Nc2c(O)c3ccccc3oc2=O)cc1 | inactive: 29.3% | 

Row | Compound | activity change, negative = inhibition | Potency
25 | O=C(OCCN(C1=NS(=O)(=O)c2ccccc21)c1ccccc1Cl)c1ccc(Cl)cc1 |  | inconclusive: 89.1 µM [inhibitor, single point]
26 | Cc1[nH]cnc1CSCCN |  | inconclusive: 79.4 µM [inhibitor, single point]
27 | COc1ccc(N2CCN(C(=O)c3ccc4nc(N5CCCCC5)sc4c3)CC2)cc1 |  | active: 39.8 µM
28 | CCOc1ccc(C(=O)N(Cc2ccc(N(C)C)cc2)C2CCS(=O)(=O)C2)cc1 (stereo unspecified) |  | inconclusive: 44.7 µM [inhibitor, partial curve]
29 | Cc1[nH]n(-c2ccccc2)c(=O)c1C(C[N+](=O)[O-])c1ccc(Br)cc1 (stereo unspecified) |  | inconclusive: 89.1 µM [inhibitor, single point]
30 | CCN(CC)S(=O)(=O)c1ccc2c(c1)c(=O)c(C(=O)N1CCN(c3ccccn3)CC1)cn2C |  | inconclusive: 89.1 µM [inhibitor, single point]
31 | C/C=C/c1ccc(OCCNCc2ccccc2)c(OC)c1 |  | active: 56.2 µM
32 | COc1cccc(Nc2nn3c(=O)c4ccccc4nc3s2)c1 |  | inconclusive: 56.2 µM [inhibitor, partial curve]
33 | CCc1cc(C(=O)Nc2ccc(S(=O)(=O)NC3=NCCCCC3)cc2)sc1C | inactive: -24.2% | 
34 | Cn1cccc1Cc1nnc(SCC(=O)NCC2CCCO2)n1CCc1ccccc1 (stereo unspecified) | inactive: -0.265% | 
35 | COc1ccc(OCC(=O)Nc2nnc(-c3ccco3)s2)cc1 |  | inconclusive: 39.8 µM [inhibitor, partial curve]
36 | COc1ccc(-c2csc(NC(=O)C3CC(=O)N(Cc4ccccc4)C3)n2)cc1OC (stereo unspecified) |  | inconclusive: 35.5 µM [inhibitor, partial curve]
37 | c1ccc(-c2nc3c4ccccc4ccn3c2CN2CCOCC2)cc1 |  | inconclusive: 50.1 µM [inhibitor, partial curve]
38 | CCC(=O)Nc1ccc(N2CCOCC2)c(S(=O)(=O)Nc2ccc(OC)cc2)c1 |  | inconclusive: 89.1 µM [inhibitor, single point]
39 | COc1cc(C)c(C)cc1S(=O)(=O)N1CCN(Cc2ccc3c(c2)OCO3)CC1 |  | inconclusive: 89.1 µM [inhibitor, single point]
40 | CC(C)(C)OC(=O)N1CCN(C(=O)c2[nH]cnc2C(=O)NCc2ccccc2)CC1 | inactive: 3.87% | 
41 | O=C(Cn1c(=O)c2cccn2c2cccnc21)N1CCN(c2ccccc2F)CC1 |  | inconclusive: 44.7 µM [inhibitor, partial curve]
42 | N#CCc1ccc(C(=O)c2ccccc2F)s1 |  | active: 50.1 µM
43 | O=C(NC1(C(F)(F)F)NC(=O)N(CCc2ccccc2)C1=O)c1ccccc1Cl (stereo unspecified) | inactive: 2.89% | 
44 | CC(C)C(=O)Nc1ccc(-c2nc3ccccc3c(=O)o2)cc1 | inactive: -3.55% | 
45 | COc1cccc(/C=C2/CN(C)CC3=C2OC(N)=C(C#N)C3c2cccc(OC)c2)c1 (stereo unspecified) |  | inconclusive: 28.2 µM [inhibitor, partial curve]
46 | CCS(=O)(=O)C1=NSC2=NC(=O)/C(=C\c3ccc(OS(=O)(=O)c4ccccc4)cc3)C(=N)N21 |  | active: 56.2 µM
47 | O=c1[nH]c(=O)n(Cc2ccccc2)c2nc(-c3ccc(Oc4ccc(F)cc4)c([N+](=O)[O-])c3)n(CCO)c12 |  | inconclusive: 79.4 µM [inhibitor, single point]
48 | COc1cc(/C=N/NC(=S)NC2CC3CC2C2C=CCC32)ccc1O (stereo unspecified) |  | inconclusive: 50.1 µM [inhibitor, partial curve]

Row | Compound | activity change, negative = inhibition | Potency
49 | CCCCN(C)C(=O)C1CCN(Cc2ccc(OCc3ccccc3)cc2)CC1 |  | inconclusive: 89.1 µM [inhibitor, single point]
50 | COc1ccc(C2C(C(=O)c3ccc(C)o3)=C(O)C(=O)N2CC2CCCO2)cc1OC (stereo unspecified) |  | inconclusive: 79.4 µM [inhibitor, single point]
51 | O=C(Nc1ccc(F)cc1)C1CCN(c2nc3ccccc3n3cccc23)CC1 |  | inconclusive: 39.8 µM [inhibitor, partial curve]
52 | COc1cccc(N2CCN(C(=O)CCCn3c(=O)[nH]c4ccc(Br)cc4c3=O)CC2)c1 | inactive: -31.6% | 
53 | CCOc1ccc(CNC(=O)c2ccc3nc(CC)c(CC)nc3c2)cc1 | inactive: 2.84% | 
54 | Cc1ccc(C)c(N2CCN(C(=O)CCCN3C(=S)NC(C)(C)CC3C)CC2)c1 (stereo unspecified) |  | inconclusive: 89.1 µM [inhibitor, single point]
55 | COC(=O)c1ccccc1N=Nc1c(N)n[nH]c1N |  | inconclusive: 56.2 µM [inhibitor, partial curve]
56 | CC(C)CCNC(=O)/C=C/c1ccc(Br)cc1 | inactive: 2.99% | 
57 | CC(C)[C@H]1C=C(C(=O)O)O[C@@H](OCc2ccc(CO)cc2)C1 |  | inconclusive: 89.1 µM [inhibitor, single point]
58 | O=C1CC(c2cccs2)c2cc3c(cc2N1)OCO3 (stereo unspecified) |  | inconclusive: 89.1 µM [inhibitor, single point]
59 | COc1cc(/C=N/NC(=O)c2ccncc2)ccc1OC(=O)c1ccccc1Cl |  | inconclusive: 79.4 µM [inhibitor, single point]
60 | Cn1nnnc1SCCNCc1ccncc1 |  | inconclusive: 89.1 µM [inhibitor, single point]
61 | COc1ccc(C2C(C(C)=O)=C(O)C(=O)N2CCc2ccccc2)c(OC)c1 (stereo unspecified) |  | inconclusive: 89.1 µM [inhibitor, single point]
62 | CC(/C=N/n1c(-c2ccncc2)n[nH]c1=S)=C\c1ccco1 |  | inconclusive: 79.4 µM [inhibitor, partial curve]
63 | COC(=O)C(NNc1ccc(F)cc1)(NC(=O)c1ccccc1)C(F)(F)F (stereo unspecified) | inactive: -4.38% | 
64 | O=C(CN1CCCC1)Nc1ccc(OC(F)(F)F)cc1 |  | inconclusive: 79.4 µM [inhibitor, single point]
65 | Cc1ccc(C2=NOC(=O)/C2=C\c2ccc(C)o2)cc1 |  | active: 11.2 µM
66 | Cc1ccc(NC(=O)CSc2nccn2Cc2ccco2)cc1Cl |  | inconclusive: 35.5 µM [inhibitor, partial curve]
67 | COc1ccc(CN2C(=O)c3cccnc3C2=O)cc1S(=O)(=O)NCc1ccco1 |  | inconclusive: 79.4 µM [inhibitor, single point]
68 | COC(=O)c1sccc1NC(=S)N1CCCCC1 | inactive: 5.57% | 
69 | O=C(NCCc1csc(-c2ccccc2)n1)c1cccs1 |  | inconclusive: 89.1 µM [inhibitor, single point]
70 | Cc1ccc(C(=O)c2ccc([N+](=O)[O-])cc2)cc1 |  | inconclusive: 22.4 µM [inhibitor, full curve]
71 | COc1ccc(OC)c(CNS(=O)(=O)c2ccc3[nH]c4c(c3c2)CCCCC4)c1 |  | inconclusive: 39.8 µM [inhibitor, single point]
